# Data reported in PubChem BioAssay (NCATS).
# The shares of active, inactive and inconclusive entries below differ from those in the screen. A potency beside an inconclusive call is a rough fit, not a confirmed value. The source made the active and inactive calls. Calls come from the whole dose curve; as a rule, active = well fitted curve in the direction sought with a large enough effect; inconclusive = small, poorly fitted or top-dose-only effect, or another doubt; inactive = no such curve, though single readings can be large; an effect the other way counts as inactive or inconclusive.
# Test: BET inhibitor-based combinations targeting novel dependencies in MECOM-rearranged (r) AML: UCSD-AML1 cell line (AID 2202235); note: nearly all actives have a fitted effect of over 40% in size;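 for viability (% of control): plate controls were DMSO vehicle wells for no effect and blank wells for full effect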
# Details: UCSD-AML1 AML cells viability, CellTiter-Glo, 48 h; viability (% of control): at 46 µM (top of the series)
# Method in brief: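 Using pin-tool transfer, drugs were added in 11 doses to cells (500/well), incubated 48 hr, and assessed with CellTiter-Glo. Z-AUC is a mean-centring transformation applied separately to each screened line.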
# Potency is the fitted concentration of half-maximal effect; tags give direction and shape of the fitted curve.
Structure (SMILES),viability (% of control),Potency
OCCN1CCN(CCCN2c3ccccc3Sc3ccc(C(F)(F)F)cc32)CC1,inactive: 102%,–
O=c1cc(-c2ccc(O)cc2)oc2cc(O)cc(O)c12,–,"inconclusive: 23.5 µM [inhibitor, partial curve]"
O=C1NC(=O)/C(=C/c2ccc(-c3ccc(F)cc3O)o2)S1,–,"inconclusive: 11.8 µM [inhibitor, partial curve]"
CC/C(=C(\c1ccccc1)c1ccc(OCCN(C)C)cc1)c1ccccc1,–,"inconclusive: 24.1 µM [inhibitor, single point]"

# Test: BET inhibitor-based combinations targeting novel dependencies in MECOM-rearranged (r) AML: AML-191 cell line (AID 2202236; note: nearly all actives have a fitted effect of over 35% in size;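 for viability (% of control): plate controls were vehicle wells for no effect and wells without cells for full effect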)
# Details: AML-191 viability, CellTiter-Glo luminescence, 48 h; series mostly up to 46 µM; viability (% of control): at the top concentration
# Method in brief: (§1)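 Viability of cells (500 per well) is scored by luminescent CellTiter-Glo at 48 hr post-dosing. Eleven-point titrations are normalized to DMSO and empty controls and reduced to AUC values.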
Structure (SMILES),Potency,viability (% of control)
O=c1cc(-c2ccc(O)cc2)oc2cc(O)cc(O)c12,"inconclusive: 23.5 µM [inhibitor, single point]",–
O=C1NC(=O)/C(=C/c2ccc(-c3ccc(F)cc3O)o2)S1,"inconclusive: 14.8 µM [inhibitor, partial curve]",–
CN1CCN(CCCN2c3ccccc3Sc3ccc(C(F)(F)F)cc32)CC1,"inconclusive: 23.5 µM [inhibitor, partial curve]",–
COc1ccc2[nH]cc(CCNC(C)=O)c2c1,–,inactive: 108%
CC/C(=C(\c1ccccc1)c1ccc(OCCN(C)C)cc1)c1ccccc1,"inconclusive: 19.1 µM [inhibitor, single point]",–

# Test: BET inhibitor-based combinations targeting novel dependencies in MECOM-rearranged (r) AML: AML-194 cell line (AID 2202237; note: nearly all actives have a fitted effect of over 40% in size;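 for viability (% of control): plate controls were vehicle wells for no effect and wells without cells for full effect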)
# Details: AML-194 (MECOM-r AML) viability, CellTiter-Glo, 48 h; series mostly up to 46 µM; viability (% of control): at the top concentration
# Method in brief: as §1
Structure (SMILES),Potency,viability (% of control)
OCCN1CCN(CCCN2c3ccccc3Sc3ccc(C(F)(F)F)cc32)CC1,"inconclusive: 29.5 µM [inhibitor, single point]",–
O=c1cc(-c2ccc(O)cc2)oc2cc(O)cc(O)c12,"inconclusive: 46.8 µM [inhibitor, partial curve, poor fit]",–
O=C1NC(=O)/C(=C/c2ccc(-c3ccc(F)cc3O)o2)S1,"inconclusive: 16.6 µM [inhibitor, partial curve]",–
CN1CCN(CCCN2c3ccccc3Sc3ccc(C(F)(F)F)cc32)CC1,"inconclusive: 29.5 µM [inhibitor, single point]",–
COc1ccc2[nH]cc(CCNC(C)=O)c2c1,–,inactive: 102%
CC/C(=C(\c1ccccc1)c1ccc(OCCN(C)C)cc1)c1ccccc1,"inconclusive: 19.1 µM [inhibitor, single point]",–
O=C(Nc1nc2ccccc2n1CCN1CCOCC1)c1cccc([N+](=O)[O-])c1,"inconclusive: 0.332 µM [inhibitor, full curve, poor fit]",–
CCc1cncnc1N1CCN(Cc2nc3ccc(C(F)(F)F)cc3[nH]2)CC1,"inconclusive: 18.6 µM [inhibitor, partial curve, poor fit]",–
